# Assay results from PubChem BioAssay AID1347120 (National Center for Advancing Translational Sciences (NCATS), 2019).
# The campaign covered roughly 390,000 compounds. About 930 (0.24%) were called active. This list was built around the results that the source calls inconclusive (neither active nor inactive); the mix of calls is not that of the screen. The call rests on the fitted dose curve; in most records, active means well fitted activation curve with a large enough effect; inconclusive means small, poorly fitted or top-dose-only effect; inactive means no such curve, though single readings can be large or run the other way. A potency beside an inconclusive call is a rough fit, not a confirmed value.
# Test: qHTS for Suppressors of FUS Proteinopathy: Primary screen using FUS-linked yeast assay; further: nearly all actives have a fitted effect of over 55% in size;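 on growth rescue (activation): plate controls were DMSO vehicle for no effect and reference control for full effect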
# Details: S. cerevisiae FUS-expressing, OD600, 24 h; Potency: growth rescue; growth rescue (activation): at 76.6 µM (top of the series)
# Method in brief: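 FUS-expressing yeast, raffinose-pregrown, induced in 2% galactose minimal medium at OD 0.005; compounds in a dilution series, 24hr at 30C. Growth restoration read as absorbance at 600 nm. CP55940 positive control, DMSO negative.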
# Potency means the concentration at half of the fitted maximal effect; tags describe the fitted curve by direction and shape.
Structure (SMILES),Potency,growth rescue (activation)
Cc1cc(C)cc(OCC(=O)N/N=C/c2ccc([N+](=O)[O-])o2)c1,inactive,–
CC1(C)CC(=O)c2c(oc3ccc(NS(=O)(=O)c4ccc(C(=O)O)cc4)cc23)C1,"inconclusive: 11.2 µM [activator, single point]",–
COc1cc2c(C(=O)N3CCOCC3)c(CSc3ccccc3)n(C)c2cc1Br,"inconclusive: 22.4 µM [activator, single point]",–
Oc1ccccc1/C=N/NC(=S)NC1CC2CCC1C2 (stereo unspecified),"inconclusive: 3.55 µM [activator, full curve]",–
C[C@@H]1COC(=O)[C@@H](NC(=O)OCC2c3ccccc3-c3ccccc32)C/C=C\C[C@@H](CC(=O)N(CCO)Cc2ccccc2)C(=O)N1,"inconclusive: 35.5 µM [activator, single point]",–
CN=c1scc(-c2ccccc2F)n1/N=C(\C)c1cccnc1,"inconclusive: 39.8 µM [activator, partial curve, poor fit]",–
CC(C)(C)OC(=O)CNC(=O)c1nc[nH]c1C(=O)NCc1ccc(CNC(=O)OC(C)(C)C)cc1,"inconclusive: 22.4 µM [activator, single point]",–
COc1ccc(C(C)(C)C)cc1NC(=O)COC(=O)CSCc1c(C)noc1C,"inconclusive: 28.2 µM [activator, single point]",–
O=[N+]([O-])c1cccc(/C=N/Nc2nc(NCc3ccccc3)nc(N3CCOCC3)n2)c1O,"inconclusive: 50.1 µM [activator, single point]",–
O=C(COc1ccc(Cl)cc1Cl)N1CCCN(C(=O)COc2ccc(Cl)cc2Cl)CC1,"inconclusive: 50.1 µM [activator, single point]",–
CCOc1ccc(-n2c(Cc3cc(=O)[nH]c(=O)[nH]3)nnc2SCC(N)=O)cc1,–,inconclusive: 61.8% [activator]
O=C(NCc1ccco1)c1ccc(Oc2ccccc2)cc1,inactive,–
CC(C)N(C)c1ncnc2c1ncn2[C@H]1CN(Cc2ccc(-c3ccccc3)cc2)C[C@@H](CO)O1,"inconclusive: 20 µM [activator, partial curve, poor fit]",–
COC(=O)C[C@@H]1CC[C@H]2[C@H](COc3ccc(NC(=O)Nc4ccc(Cl)cc4)cc3C(=O)N2C)O1,"inconclusive: 44.7 µM [activator, single point]",–
CCOc1ccc(CNC(=O)C2CCN(S(=O)(=O)c3ccc4c(ccn4C)c3)CC2)cc1,"inconclusive: 44.7 µM [activator, single point]",–
Clc1cccc(N2CCN(c3c4c(nc5nncn35)CCC4)CC2)c1,inactive,–
CCc1ccc2oc(=O)cc(CN(C)Cc3ccccc3)c2c1,inactive,–
CCc1nnc(SCc2ccc(F)cc2Cl)c2cc3sc(C)cc3n12,inactive,–
Cc1ccc2[nH]c(C(=O)O)c(-c3ccccc3)c2c1,inactive,–
CC(=O)c1ccc(NC(=O)c2nc(-c3ccccc3)n(-c3ccccc3Cl)n2)cc1,"inconclusive: 28.2 µM [activator, single point]",–
CS(=O)(=O)N[C@@H]1C[C@@H]2O[C@H](CO)CC[C@@H]2O[C@@H]1CCc1ccc(-c2ccccc2F)cc1,"inconclusive: 25.1 µM [activator, single point]",–

Structure (SMILES),Potency,growth rescue (activation)
Cc1cccc(N2CCN(C(=O)Cn3ncc4c3-c3ccccc3OC4)CC2)c1C,"inconclusive: 20 µM [activator, single point]",–
CCOc1ccc(Nc2ncnc3c2nc2n3CCCCC2)cc1,inactive,–
CC(C)c1cc(=O)oc2c3c4c(cc12)CCCN4CCC3,inactive,–
COc1cc2cc(C(c3nnnn3C3CCCC3)N3CCc4ccccc43)c(=O)[nH]c2cc1OC (stereo unspecified),"inconclusive: 10 µM [activator, partial curve]",–
CSCC[C@H](NC(=O)c1ccc(Cl)c(S(=O)(=O)N2CCCC2)c1)c1nc2ccccc2[nH]1,"inconclusive: 44.7 µM [activator, single point]",–
COc1ccc(Cl)cc1-c1cc(C(=O)NCc2ccc(C(F)(F)F)cc2)[nH]n1,inactive,–
COc1ccc2c(c1)C(c1cccs1)=NNC(c1ccncc1)=N2,"inconclusive: 44.7 µM [activator, single point]",–
O=C1C2C3C=CC(C3=C(c3ccccc3)c3ccccc3)C2C(=O)N1CCO (stereo unspecified),inactive,–
COC(=O)C1CN(CCc2ccccc2)CCS(=O)(=O)N1Cc1ccc(C)cc1 (stereo unspecified),inactive,–
CCCCNc1c(-c2ccc(-c3ccc(C(C)=O)cc3)c(OC)c2)nc2cnccn12,"inconclusive: 44.7 µM [activator, single point]",–
CCc1nn(CCCC(=O)N2CCN(c3ccc(OC)cc3)CC2)c(=O)c2cc3occc3n12,"inconclusive: 8.91 µM [activator, partial curve]",–
COc1ccc(CCNC(=O)c2ccc3c(c2)c(C)c(C)n3Cc2ccccc2)c(OC)c1OC,"inconclusive: 28.2 µM [activator, single point]",–
COC(=O)[C@]12CCCCC=C1N(Cc1ccc(OC)cc1)C(=O)[C@@H]2CC(=O)N1CCC(c2ccccc2)CC1,"inconclusive: 17.8 µM [activator, single point]",–
CCC(C)Nc1nc(-c2ccc3c(c2)NC(=O)CO3)cs1 (stereo unspecified),"inconclusive: 31.6 µM [activator, single point]",–
COc1ccc(CNc2nccs2)cc1,"inconclusive: 0.891 µM [activator, full curve, poor fit]",–
C/C(N)=C(/C#N)C(=O)CSc1nc2ccc(C)cc2[nH]1,–,inconclusive: 84.5% [activator]
CCN(CC)S(=O)(=O)c1cc(C(=O)OC(C)C(=O)NCc2ccco2)ccc1C (stereo unspecified),"inconclusive: 5.01 µM [activator, partial curve, poor fit]",–
COc1ccc(Cl)cc1NC(=O)CN(C)C(=O)/C=C/c1ccco1,inactive,–
O=C(O)c1ccc(-c2ccc(/C=N/Nc3ccc([N+](=O)[O-])cc3)o2)cc1,"inconclusive: 44.7 µM [activator, single point]",–
COc1ccc(NS(=O)(=O)c2ccc(N3CCOCC3)c(NC(=O)c3ccccc3Cl)c2)cc1,"inconclusive: 17.8 µM [activator, partial curve, poor fit]",–
